PubChem BioAssay AID504832 (National Center for Advancing Translational Sciences (NCATS), 2011)
Screen size: about 310,000 compounds; about 18,000 (5.8%) were called active. The shares of active, inactive and inconclusive entries below differ from those in the screen. The call rests on the fitted dose curve; in most records, active means well fitted inhibition curve with a large enough effect; inconclusive means small, poorly fitted or top-dose-only effect, or another doubt; inactive means no such curve, though single readings can be large or run the other way. Potencies of inconclusive entries are left out as doubtful fits.

Test: Primary qHTS for delayed death inhibitors of the malarial parasite plastid, 48 hour incubation
Conditions: P. falciparum luciferase growth in erythrocytes; series mostly up to 28.7 µM
Method in brief: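 Here the parasites carry a stable luciferase gene and grow inside erythrocytes in Albumax-based RPMI medium with compound for one erythrocytic cycle. Activity is scored as loss of luminescent signal.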
Potency means the concentration at half of the fitted maximal effect; tags describe the fitted curve by direction and shape.

SMILES | Potency
Cc1ccn2cc(CCNS(=O)(=O)c3ccc4c(c3)OCCO4)nc2c1 | inactive
COc1ccc(C(=O)N(C)C2CCCc3ccccc32)cc1OC1CCN(C(C)C)CC1 (stereo not given) | inconclusive [inhibitor, single point]
COc1ccc(C(C)=O)cc1CN(c1ccccc1OC)S(=O)(=O)c1cccs1 | inconclusive [inhibitor, single point]
COc1ccc(C(CNC(=O)Nc2ccc(Cl)cc2)N2CCN(C)CC2)cc1 (stereo not given) | inconclusive [inhibitor, single point]
Cc1cc(=O)oc2c1ccc1oc(/C(=N/O)c3ccccc3)c(C)c12 | active: 1.65 µM
CCSc1nnc(NC(=O)c2ccc(F)c(S(=O)(=O)N3CCOCC3)c2)s1 | inconclusive [inhibitor, single point]
COc1ccccc1NS(=O)(=O)c1ccc(C(=O)OCC(=O)NCc2ccco2)cc1 | inactive
COc1ccc(CNC(=O)C(c2ccc(C)o2)N(C(=O)c2snc(C(N)=O)c2N)c2ccccc2OC)cc1 (stereo not given) | inconclusive [inhibitor, single point]
COCCCNC(=O)CN1C(=O)CSc2ncccc21 | inactive
COc1ccc(-n2c(SCc3ccc([N+](=O)[O-])cc3)nnc2-c2ccccc2)cc1 | inconclusive [inhibitor, single point]
CN(CC(=O)NC1CCCCC1)S(=O)(=O)c1ccc(Cl)cc1 | inactive
Cn1c(=O)c2cc(S(=O)(=O)NCCC(=O)NCCC3=CCCCC3)ccc2n(C)c1=O | inconclusive [inhibitor, partial curve, poor fit]
COc1cccc(NC(=O)CSc2nc3ccccc3c(=O)n2CCCC(=O)N2CCCC2)c1 | inconclusive [inhibitor, single point]
CC(=NC(C)C)C1=C(O)CCC1=O | inactive
O=C(Nc1ccc(-c2csc(Nc3cccc(C(F)(F)F)c3)n2)cc1)c1ccccc1 | inconclusive [inhibitor, single point]
Cn1c(=O)[nH]c(=O)c2c1nc(Br)n2CCC(=O)c1ccccc1 | inactive
CCC1CCCCN1Cc1ccc(CNC(=O)CCc2nnc3ccc(N4CCCCC4)nn23)o1 (stereo not given) | inconclusive [inhibitor, partial curve]
O=C(N/N=C/c1ccccn1)c1cc(-c2ccc(Br)cc2)nc2ccccc12 | inconclusive [inhibitor, full curve]
Cc1c(C(=O)NCc2ccc3c(c2)OCO3)oc2ccc(Br)cc12 | inactive
O=C1OCC(c2ccccc2)=C1c1ccccc1 | inactive
COCCN(C(=O)COC(=O)C1CC1C)c1c(N)n(Cc2ccccc2)c(=O)[nH]c1=O (stereo not given) | inconclusive [inhibitor, single point]
CCOC(=O)C1CCCN(C(=O)c2ccc(NS(=O)(=O)c3ccc4[nH]c(=O)[nH]c4c3)cc2)C1 (stereo not given) | inconclusive [inhibitor, partial curve, poor fit]
CC1(C)CC2C1CCC1(O)CC2(C)CCC1N(O)c1ccc(C(=O)NCCO)cn1 (stereo not given) | inconclusive [inhibitor, single point]
c1ccc(-c2nc(N3CCCCC3)nc3ccccc23)cc1 | inconclusive [inhibitor, single point]

SMILES | Potency
NC1=NC(=O)/C(=C\c2ccc(O)c([N+](=O)[O-])c2)S1 | inactive
CCc1ccccc1NC(=O)Nc1ccon1 | inactive
CC(C)n1c(C(O)c2ccc3c(c2)OCO3)nc2ccccc21 (stereo not given) | active: 9.28 µM
CC(=O)/C(C#N)=C1\NC(=O)C(Cc2ccc(F)cc2)S1 (stereo not given) | inconclusive [inhibitor, single point]
Clc1ccc(-n2c(SC/C=C/c3ccccc3)nnc2-c2cccnc2)cc1 | active: 11.7 µM
O=C(NCCS(=O)(=O)N1CCCCC1)c1ccc2c(c1)OCO2 | inactive
COc1cc(C2CC(=O)c3c([nH]c(C(=O)OCCOC(C)C)c3C)C2)cc(OC)c1OC (stereo not given) | active: 7.38 µM
COc1ccc(C(C(=O)NC2CCCCC2)N(C(=O)CCl)c2cccc(Cl)c2)cc1 (stereo not given) | inconclusive [inhibitor, partial curve, poor fit]
CN(CC(=O)Nc1ccc(Cl)c(Cl)c1)C(=O)C12CC3CC(CC(C3)C1)C2 | inconclusive [inhibitor, partial curve, poor fit]
Cc1cccc(C(CC(=O)NCc2ccco2)c2ccccc2)c1O (stereo not given) | inactive
CCc1cc2c(=O)c(-c3nc4ccccc4[nH]3)coc2c(CN2CCCCC2)c1O | inactive
COc1ccc(C(C)(C)C)cc1NS(=O)(=O)c1cccc2cccnc12 | inactive
CCOC(=O)c1cn(-c2ccccc2)nc1-c1cccnc1 | inactive
COC(=O)C1=CN(C2CC2)C=C(C(=O)OC)C1c1ccc(C(F)(F)F)cc1 | inconclusive [inhibitor, partial curve, poor fit]
O=C(C1=C[C@H](C2CCCCC2)C[C@H](OCCCCO)O1)N1CCN(Cc2ccccc2)CC1 | inconclusive [inhibitor, partial curve]
CN1CCC(OC(=O)c2ccco2)CC1 | inactive
CC(C)(C)CC(C)(C)NC(=O)Nc1cccc([N+](=O)[O-])c1 | inconclusive [inhibitor, single point]
COc1cc(OC)cc(C(=O)NC(=S)Nc2ccc(N3CCCC3)cc2)c1 | inconclusive [inhibitor, single point]
COc1cc(C2NC(=S)NC(c3ccccc3)=C2C(C)=O)cc(Br)c1OCC(N)=O (stereo not given) | inconclusive [inhibitor, single point]
COc1ccc(C2Nc3ccccc3C(=O)N2c2ccccc2)cc1Cn1cc([N+](=O)[O-])cn1 (stereo not given) | active: 13.1 µM
CC(C)Cn1cnc2c(c1=N)C(c1ccccc1)C1=C(CC(C)(C)CC1=O)O2 (stereo not given) | inconclusive [inhibitor, partial curve]
COC(=O)c1cc2occc2n1CC(=O)Nc1cc(OC)cc(OC)c1 | inconclusive [inhibitor, partial curve, poor fit]
CC(=O)c1ccc(NS(=O)(=O)c2ccc(N/C=C/C(=O)c3ccc(F)cc3)cc2)cc1 | inconclusive [inhibitor, partial curve, poor fit]
Cc1cc(NC(=O)Cn2cnc3sc(C)c(-c4ccccc4)c3c2=O)no1 | inconclusive [inhibitor, single point]

SMILES | Potency
CC(C)c1ccc(C(C(=O)NC2CCCC2)N(C(=O)c2csnn2)C2CC2)cc1 (stereo not given) | inconclusive [inhibitor, single point]
COc1cc(/C=N/NC2=NS(=O)(=O)c3ccccc32)ccc1OC(C)=O | inconclusive [inhibitor, partial curve, poor fit]
CC(C)CN1CCC(CNC(=O)CCc2nnc(Cc3c[nH]c4ccccc34)o2)CC1 | inactive
C[N+]1(C)[C@@H]2CC[C@H]1CC(OC(=O)[C@@H](CO)c1ccccc1)C2 (stereo not given in full) | inactive
Cc1ccc(S(=O)(=O)/N=C2\C(=O)c3ccccc3C([O-])=C2n2cc[n+](CCC(C)C)c2)cc1 | active: 13.1 µM
O=C(N/N=C/c1ccc[nH]1)c1cc2ccccc2cc1O | inconclusive [inhibitor, single point]
Cc1cc2c(s1)c1c(n2C)C(=O)N(Cc2ccccc2F)C1 | inconclusive [inhibitor, single point]
CC1(C)Cc2cccc(OCC(=O)N3CCN(S(=O)(=O)c4ccccc4F)CC3)c2O1 | inconclusive [inhibitor, full curve, poor fit]
Cc1ccc(N2C(=O)[C@@H]3[C@H](C2=O)C2c4ccccc4C=CN2[C@@H]3C(=O)c2ccco2)cc1 (stereo not given in full) | inconclusive [inhibitor, full curve, poor fit]
CC(C)(C)c1ccc(C(CC(=O)O)NC(=O)Cc2ccccc2)cc1 (stereo not given) | inactive
Cc1ccc(Cc2c(C)c(C#N)c3[nH]c4ccccc4n3c2=O)cc1 | inconclusive [inhibitor, single point]
COc1ccc(Cl)cc1S(=O)(=O)NC(C)C(=O)NCc1cccnc1 (stereo not given) | inactive
S=C(Nc1ccccc1Cl)N1CCN(c2ccccn2)CC1 | inactive
N#Cc1cn(CC(=O)NCCc2c[nH]c3ccccc23)c2ccccc12 | inconclusive [inhibitor, single point]
Cc1nc2ccc(NC(=O)c3cccc(S(=O)(=O)N(C)c4ccccc4)c3)cc2s1 | inconclusive [inhibitor, partial curve]
COc1cccc(C2c3[nH]c4ccccc4c3CCN2Cc2cnc(C)s2)c1OC (stereo not given) | active: 2.33 µM
Cc1cc(C)cc(SCc2noc(C(=O)NCCCN3CCOCC3)c2C(=O)NCCCN2CCOCC2)c1 | active: 9.28 µM
CCN(CC)CCNC(=O)c1ccc(NC(=O)c2ccc3c(c2)CCC3)cc1 | active: 5.22 µM
Cc1ccc(NC(=O)CSc2n[nH]c(-c3ccco3)n2)cc1 | inactive
Cc1ccc(-c2nc3ccc(Cl)cc3n2OC(C)C(=O)O)cc1 (stereo not given) | inactive
C=CC(=O)NCCCc1cc(C(C)(C)C)c(O)c(C(C)(C)C)c1 | active: 11.7 µM
O=C1OCCN1C(=O)[C@H]1[C@H](c2ccc(F)cc2)C(c2ccc(F)cc2)=NN1c1ccccc1 | inconclusive [inhibitor, single point]
